In article PMC4336329 (PLoS ONE, 2015):
The campaign covered roughly 310,000 compounds. About 2,200 (0.71%) showed an effect of 50% or more. The effect is printed as a negative number. The list shows a part of the results.

What follows are compounds tested against human ether-à-go-go-related gene (hERG) potassium channel (human, UniProt Q12809) (assay: primary screen, population patch clamp on CHO cells stably expressing hERG).
human ether-à-go-go-related gene (hERG) potassium channel, sequence (Q12809 whole entry, looked up): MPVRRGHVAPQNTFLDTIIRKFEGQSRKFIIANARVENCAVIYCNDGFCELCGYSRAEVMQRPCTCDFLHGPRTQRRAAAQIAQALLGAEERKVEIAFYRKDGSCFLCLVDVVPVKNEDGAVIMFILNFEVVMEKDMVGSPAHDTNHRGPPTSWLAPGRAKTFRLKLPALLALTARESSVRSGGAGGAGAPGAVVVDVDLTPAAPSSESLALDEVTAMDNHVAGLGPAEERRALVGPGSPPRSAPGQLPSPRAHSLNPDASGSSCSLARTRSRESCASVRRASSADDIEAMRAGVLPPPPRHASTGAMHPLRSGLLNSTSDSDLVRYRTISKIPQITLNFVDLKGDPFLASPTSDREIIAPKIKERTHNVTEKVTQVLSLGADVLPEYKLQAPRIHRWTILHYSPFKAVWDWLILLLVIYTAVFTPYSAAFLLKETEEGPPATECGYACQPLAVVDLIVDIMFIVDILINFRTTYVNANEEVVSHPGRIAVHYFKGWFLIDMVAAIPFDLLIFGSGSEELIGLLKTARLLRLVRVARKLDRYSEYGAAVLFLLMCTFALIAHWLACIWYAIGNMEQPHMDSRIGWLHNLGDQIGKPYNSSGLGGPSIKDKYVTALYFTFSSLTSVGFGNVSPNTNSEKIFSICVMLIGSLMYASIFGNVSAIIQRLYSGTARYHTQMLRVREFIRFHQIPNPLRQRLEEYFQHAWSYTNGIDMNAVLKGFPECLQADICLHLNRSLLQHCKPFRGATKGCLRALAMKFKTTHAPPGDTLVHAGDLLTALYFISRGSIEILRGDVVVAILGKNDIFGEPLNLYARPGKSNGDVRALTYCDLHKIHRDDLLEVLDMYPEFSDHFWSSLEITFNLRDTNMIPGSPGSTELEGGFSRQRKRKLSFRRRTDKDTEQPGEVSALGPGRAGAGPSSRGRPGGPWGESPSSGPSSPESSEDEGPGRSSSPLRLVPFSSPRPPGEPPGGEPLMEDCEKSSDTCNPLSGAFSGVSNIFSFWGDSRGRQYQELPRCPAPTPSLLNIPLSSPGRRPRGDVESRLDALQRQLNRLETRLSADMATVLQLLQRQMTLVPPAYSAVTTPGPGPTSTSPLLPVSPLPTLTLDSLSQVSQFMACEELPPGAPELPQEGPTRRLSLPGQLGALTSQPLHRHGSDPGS

SMILES | hERG current change (%, negative = inhibition) at 1uM [%]
CCOC(=O)c1ccc(Nc2nnc(C(C)(C)C)c(=O)[nH]2)cc1 | 5.69
COc1ccc(NC(=O)CSc2nnc(C)n2N)cc1S(=O)(=O)N1CCCCC1 | 7.99
Cc1c(Cl)ccc2sc(NC(=O)c3ccco3)nc12 | 18.7
O=C1N[C@@H](Cc2cn(S(=O)(=O)c3ccc([N+](=O)[O-])cc3)c3ccccc23)C(=O)N[C@H]1Cc1ccccc1 | 13.5
COc1cccc(C2c3c(oc4ccccc4c3=O)C(=O)N2CCCN(C)C)c1OC (stereo not shown) | 19.4
O=C(Nc1c2c(nn1-c1ccc(F)cc1)CS(=O)C2)c1ccc2c(c1)OCO2 (stereo not shown) | 19.2
CC(=O)Nc1ccc(N)cc1 | 9.92
Cc1ccc(Cl)cc1NC(=S)N(CCCN1CCN(C)CC1)Cc1cccs1 | -11.9
COc1cccc(/C=N/NC(=O)Cn2nc(C)c([N+](=O)[O-])c2C)c1O | 4.39
COc1ccc(CCNC(=O)CSc2nnc(CNC(=O)c3c(F)cccc3Cl)o2)cc1OC | 17.7
Cc1cc(=O)[nH]c(Sc2c(-c3ccccc3)c3ccccc3[nH]c2=O)n1 | 3.54
O=C(CSc1nnc(NCc2ccccc2)s1)N1CCOCC1 | 0.553
CC(=O)c1cn(-c2ccc(Cl)cc2)c(=O)[nH]c1=O | 6.76
COc1cc2c(C(=O)O)c(C)n(C)c2c2ccccc12 | 19
CCOc1ccccc1NC(=O)c1cnccn1 | 9.24
COc1ccc(OCCn2cc(/C(N)=N/O)c3ccccc32)cc1 | -6.35
CC(=O)Oc1oc(-c2ccccc2)nc1/C=N/c1ccccn1 | -2.1
Cc1cc2ncn(C(=O)c3ccc4c(c3)OCO4)c2cc1C | -0.531
CCC(C(=O)NCC1CCCO1)N(Cc1ccc(F)cc1)C(=O)CNS(=O)(=O)c1ccccc1 (stereo not shown) | 10.7
N#Cc1c(-c2ccccc2)c(-c2ccccc2)nn(CC(=O)NNC(=O)Nc2ccc(Cl)cc2)c1=O | 9.08
Cc1ccc(NC2=NCCCS2)c(C)c1C | 4.85
CCCCCc1c(O)nc(SCCN2CCOCC2)[nH]c1=O.Cl | -0.95
COc1ccc(/C(O)=C2/C(=O)C(=O)N(CC3CCCO3)C2c2ccc(OC)c(OC)c2)cc1 (stereo not shown) | 6.71
CCCCN1CCc2c(c3ccccc3n2Cc2ccccc2)C1 | -48.8
COC1=C[C@@H]2C3=C([C@@H]2C1=O)[C@@H](NC(C)=O)CCc1cc(OC)c(OC)c(OC)c13 | 13.5
Cc1ccc(-c2noc(CCC(=O)N(C)c3ccccc3C)n2)cc1 | 10.2
CCN(CC)C(=O)CSc1nnc(SCc2ccc(Cl)cc2)s1 | 17.5
COc1cccc(/C=N\NC(C)=O)c1OC/C=C/c1ccccc1 | 17.8

SMILES | hERG current change (%, negative = inhibition) at 1uM [%]
O=[N+]([O-])c1ccccc1Nc1c2ccccc2nc2ccccc12 | -18.4
O=C(CC(c1ccccc1)c1ccccc1)NCCOCc1ccccc1 | 17.4
O=C(COc1ccc2c(-c3ccccc3)cc(=O)oc2c1)Nc1cccnc1 | 8.24
COc1ccc(N(CC(=O)NC2CC3CCC2C3)S(=O)(=O)c2ccc(C)c([N+](=O)[O-])c2)cc1 (stereo not shown) | 10.2
COc1ccc(/C=C2/SC(=S)N(NS(=O)(=O)c3ccccc3)C2=O)cc1 | 3.19
O=C(O)c1cccc(CSc2nnc(-c3ccc(Cl)cc3)o2)c1 | 12.3
CCN(CC)c1ccc(C2NCC(c3ccc([N+](=O)[O-])cc3)O2)cc1 (stereo not shown) | 6.89
CCCNC(=O)c1ccc2c(=O)n(Cc3ccco3)c(=S)[nH]c2c1 | 10.3
COc1ccc(/C=C/C(=O)c2cc(Cl)cc(Cl)c2O)c(OC)c1 | 14.1
Cn1c(O)c(N=NC(=O)c2ccco2)c2ccccc21 | 12.1
CCOc1cc(/C=C2\SC(=S)N(C(C(=O)O)c3ccccc3)C2=O)ccc1O (stereo not shown) | 12.9
O=C(CSCc1ccc(Cl)cc1)Nc1ccccc1C(=O)N1CCOCC1 | 3.86
CCOC(=O)c1nnn(-c2nonc2N)c1-c1ccc(C)cc1 | 4.41
Cc1cccc(-n2c(-c3cccc([N+](=O)[O-])c3)nc3nc4ccccc4nc32)c1 | 0.927
O=C(c1ccc([N+](=O)[O-])cc1)N1CCSC1c1ccc(Cl)cc1 (stereo not shown) | -33.8
CCOc1ccc(CCNC(=O)COC(=O)CNC(=O)c2ccc(Br)o2)cc1OCC | -2.04
CN(C)CCn1c2c(c(SCC(=O)Nc3cccc4ccccc34)nc1=O)CCCC2 | 0.674
COc1ccc(C2CC(c3ccccc3)Nc3nc(NS(C)(=O)=O)nn32)cc1 (stereo not shown) | 12.8
COc1ccc(S(=O)(=O)Nc2ccc(NC(C)=O)cc2)cc1OC | 12.1
CCn1c(COc2ccc(Cl)c(C)c2)nnc1SCC(=O)N1CCCC1 | 0.0557
O=C(Nc1ccccn1)NC12CC3CC(CC(C3)C1)C2 | 6.44
CC(NC(=O)C1CCN(C(=O)Nc2ccccc2)CC1)c1ccccc1Cl (stereo not shown) | 5.29
CCN1C(=O)C(=C/C=C/c2ccco2)C(=O)N(CC)C1=S | -15.5
COC(=O)c1ccccc1-c1ccc(C(c2c(C)[nH][nH]c2=O)c2c(C)[nH][nH]c2=O)o1 | 19.6
O=S(=O)(c1ccccc1S(=O)(=O)N1CCCCC1)N1CCCCC1 | 7.93
O=C(c1ccc(Cl)cc1)C1CCCN(Cc2ccc(Oc3ncccn3)cc2)C1 (stereo not shown) | -13.9
CC(=O)c1ccc(N2CCN(C(=O)CN(C)S(=O)(=O)c3cnc[nH]3)CC2)cc1 | 2.11
